Results: article PMC5892938
The list shows a part of the results. The exact form of the protein is not confirmed.

What follows are sequences tested against GST-SBP-ILF3 (Homo sapiens) (UniProt Q12906) (assay: targeted RNA Bind-n-Seq). Conditions: RBNS binding buffer: 25 mM Tris pH 7.5, 150 mM KCl, 3 mM MgCl2, 0.1% Tween, 0.5 mg/mL BSA, 1 mM DTT; 27 nM protein, 750 pM RNA pool; temperature not stated; high values mean tight binding; sequences stand for … in GGGUAAAAGCGAGGUGAA…CGGGACAAGUAUUAUGGG.

Sequence	binding signal (log2 fold change)
GUGUGGUGUGUUGGUGUCUAACACACUACG [gtspaired]	-1.1
GUGGUGUGUGUUGGCUCCUAACACAUACCG [gtspaired]	-0.603
UUUUUUUUUUGAGAGUGCUACAUUCUCCGG [tttttgagapaired]	0.19
UUUUUUUUUUGAGACGGAUGCCGUCUCCUA [tttttgagapaired]	0.347
UUUUUUUUUUGAGAUCGAGACGGUCUCCUG [tttttgagapaired]	0.565
UUUUUUUUUUGAGACCGAUCCGGUUUCCAG [tttttgagapaired]	0.382
UUUUUUUUUUGAGACGGGGUCUGUCUUCUA [tttttgagapaired]	0.821
UUUUUUUUUUGAGAUGGACACUAUCUCCUG [tttttgagapaired]	0.478
UUUUUUUUUUGAGACGGAUUCCGUCUCCUG [tttttgagapaired]	0.136
UUUUUUUUUUGAGAGGGAACCCCUCUUCUG [tttttgagapaired]	0.0462
UUUUUUUUUUGAGACCGUAACGGUCUUCUA [tttttgagapaired]	0.83
GGUUGGUGUGUUGGCAUCUAACACAUCGAC [gtspaired]	-0.86
UUUUUUUUUUGAGAUGGUGUCUAUCUCCUG [tttttgagapaired]	0.864
GUGGUUGGUGUUGGUACCUAACACCAGCCG [gtspaired]	-0.747
GUUGUGUGUGUUGGUCCCUAACACACGCAA [gtspaired]	-0.489
UUUUUUUUUUGAGAGUGUAACACUCUCCUG [tttttgagapaired]	0.424
UUUUUUUUUUGAGACGGAGACUGUCUCCUG [tttttgagapaired]	0.996
GGUGGUUGUGUUGGUCCCUAACACAGCCAC [gtspaired]	-0.114
GUGUGGUGUGUUGGUAUCUAACACAUCGCA [gtspaired]	-0.614
UUCUCCUCUCCUCCGGGGGAGGGGGGGAGA [ctspaired]	-0.351
GUGUGUUGUGUUGGCCUCUAACACAGCACG [gtspaired]	-0.732
UUUUUUUUUUGAGACUGCGACAGUUUCCGG [tttttgagapaired]	0.727
UUUUUUUUUUGAGACCGUUUCGGUCUUCUA [tttttgagapaired]	0.24
UUUUUUUUUUGAGAGGGCAACCCUUUCCGG [tttttgagapaired]	0.371
UUUUUUUUUUGAGAGGGAUACCCUCUCCGG [tttttgagapaired]	0.192
UUUUUUUUUUGAGAUCGGACCGAUCUCCUA [tttttgagapaired]	0.249

Sequence	binding signal (log2 fold change)
GUGGUUGGUGUUGGCGCCUAACACCGACUA [gtspaired]	-0.461
GUUGUGUGUGUUGGUCCCUAACACACACGA [gtspaired]	-0.523
UUUUUUUUUUGAGACUGUGGCAGUCUCCUG [tttttgagapaired]	0.863
UUUUUUUUUUGAGACUGCUGCAGUCUUCUA [tttttgagapaired]	0.56
UUUUUUUUUUGAGAGUGUAACAUUCUCCGG [tttttgagapaired]	0.0163
GGUGUGUGUGUUGGAUUCUAACACAUACAC [gtspaired]	-0.449
GUGUGUUGUGUUGGACCCUAACACAGCACA [gtspaired]	-0.492
UUUUUUUUUUGAGACGGAGCCCGUCUCCUG [tttttgagapaired]	0.722
GGUUGUUGUGUUGGCUUCUAACACAGCAAC [gtspaired]	-0.173
UUUUUUUUUUGAGACCGUAGCGGUCUCCUA [tttttgagapaired]	0.57
GGUUGUGGUGUUGGACUCUAACACCGCGAC [gtspaired]	-0.607
UUUUUUUUUUGAGAGCGUAUCGUUCUUCUA [tttttgagapaired]	0.286
GGUGUGUGUGUUGGCACCUAACACACAUAC [gtspaired]	-0.0113
GGUGGUUGUGUUGGCCCCUAACACAGCCGC [gtspaired]	-0.334
UUUUUUUUUUGAGAGGGCCGCCCUCUCCUG [tttttgagapaired]	1.22
UUUUUUUUUUGAGAUGGAUACCAUCUUCUG [tttttgagapaired]	0.26
GUGUGGUGUGUUGGACUCUAACACAUCGCA [gtspaired]	-0.652
GGUUGUGGUGUUGGAGCCUAACACCAUAAC [gtspaired]	-0.842
UUCUUCUCUCCUCCACGGGAGGGGGGAAGA [ctspaired]	-0.612
UUUUUUUUUUGAGAGCGGCACGCUCUUCUG [tttttgagapaired]	0.269
UUUUUUUUUUGAGACGGGGUCCGUCUUCUG [tttttgagapaired]	0.837
UUUUUUUUUUGAGAUGGUCUCCAUCUCCUG [tttttgagapaired]	0.343
UUUUUUUUUUGAGAUCGAUGCGAUCUUCUA [tttttgagapaired]	0.274
UUUUUUUUUUGAGAGUGAUCCACUCUCCUA [tttttgagapaired]	-0.304
UUUUUUUUUUGAGACCGCAACGGUUUCCAG [tttttgagapaired]	0.377
UUUUUUUUUUGAGAGUGAUACACUCUCCUA [tttttgagapaired]	-0.0016

Sequence	binding signal (log2 fold change)
UUUUUUUUUUGAGACGGACACCGUUUCCAG [tttttgagapaired]	0.508
GUGGUUGGUGUUGGCGUCUAACACCGACUA [gtspaired]	-0.599
UUUUUUUUUUGAGACGGAAACCGUCUCCGG [tttttgagapaired]	0.379
GUGUGGUGUGUUGGUGUCUAACACAUCGCG [gtspaired]	-0.832
GUGUGGUGUGUUGGUUCCUAACACAUCACG [gtspaired]	-0.912
UUUUUUUUUUGAGACGGAAUCCGUCUCCUA [tttttgagapaired]	0.115
UUUUUUUUUUGAGACUGCAGCAGUCUCCUA [tttttgagapaired]	0.591
UUUUUUUUUUGAGACCGAGUCGGUCUUCUG [tttttgagapaired]	0.682
UUUUUUUUUUGAGAUCGGGGCGAUCUCCUG [tttttgagapaired]	0.631
GUGGUUGGUGUUGGUGUCUAACACCAGCCG [gtspaired]	-0.306
GUGUGUGGUGUUGGAGCCUAACACCGCAUA [gtspaired]	-0.507
GUGUGUUGUGUUGGAUCCUAACACAGCGCG [gtspaired]	-0.688
UUUUUUUUUUGAGAGGGAAUCCCUCUCCUA [tttttgagapaired]	-0.0224
GGUUGGUGUGUUGGCCUCUAACACACUAAC [gtspaired]	-0.614
GUGUGGUGUGUUGGAGCCUAACACAUCGCG [gtspaired]	-0.468
UUUUUUUUUUGAGAGGGCAACCCUCUCCAG [tttttgagapaired]	0.39
UUUUUUUUUUGAGACCGAAUCGGUUUCCGG [tttttgagapaired]	0.525
UUUUUUUUUUGAGAGCGGAUCGCUCUUCUA [tttttgagapaired]	0.479
GUUGUGUGUGUUGGUUCCUAACACACGCAG [gtspaired]	-0.559
UUUUUUUUUUGAGAUCGGCGCGAUCUCCAG [tttttgagapaired]	0.402
UUUUUUUUUUGAGACGGCAACCGUUUCCAG [tttttgagapaired]	0.571
GGUGGUGGUGUUGGCUCCUAACACCAUCGC [gtspaired]	-0.788
GGUGGUUGUGUUGGAAUCUAACACAGCUAC [gtspaired]	-0.45
GUGUGUGGUGUUGGUCCCUAACACCGCGCG [gtspaired]	-0.485
UUUUUUUUUUGAGACGGCGGCCGUCUCCGG [tttttgagapaired]	0.996
UUUUUUUUUUGAGAUCGGGACGAUCUCCUG [tttttgagapaired]	0.729

Sequence	binding signal (log2 fold change)
UUUUUUUUUUGAGACCGGUUCGGUCUCCGG [tttttgagapaired]	0.273
UUUUUUUUUUGAGACGGCUACCGUUUCCUA [tttttgagapaired]	0.379
GGUUGGUGUGUUGGACCCUAACACACUAAC [gtspaired]	-0.15
UUUUUUUUUUGAGACCGACUCGGUCUCCUG [tttttgagapaired]	0.58
UUUUUUUUUUGAGACUGACUCAGUCUCCUG [tttttgagapaired]	0.367
GUGUGUGGUGUUGGCCUCUAACACCGCGCA [gtspaired]	-0.785
UUUUUUUUUUGAGAGGGUAACCCUUUCCAG [tttttgagapaired]	0.11
UUUUUUUUUUGAGACGGCUGCCGUCUCCAG [tttttgagapaired]	0.844
UUUUUUUUUUGAGACUGAGCCAGUCUUCUA [tttttgagapaired]	0.0583
GUGUUGUGUGUUGGUCUCUAACACACAGCA [gtspaired]	-0.947
GUGUGUGGUGUUGGAGUCUAACACCGCAUA [gtspaired]	-0.682
GUGGUGUGUGUUGGCGUCUAACACAUACCA [gtspaired]	-0.391
GGUGUUGGUGUUGGAAUCUAACACCGAUAC [gtspaired]	-0.372
UUUUUUUUUUGAGAUGGUGACUAUCUCCGG [tttttgagapaired]	0.35
UUUUUUUUUUGAGAUGGCUGCCAUCUUCUA [tttttgagapaired]	0.539
UUUUUUUUUUGAGAGUGCAGCAUUCUCCGG [tttttgagapaired]	0.426
UUUUUUUUUUGAGACUGAAUCAGUCUUCUA [tttttgagapaired]	-0.121
UUUUUUUUUUGAGAUGGAGACCAUCUCCUA [tttttgagapaired]	0.265
UUUUUUUUUUGAGACUGGACCAGUCUCCUG [tttttgagapaired]	0.528
UUUUUUUUUUGAGACUGCGACAGUCUUCUA [tttttgagapaired]	0.335
UUUUUUUUUUGAGAUGGUCUCUAUCUCCGG [tttttgagapaired]	0.371
UUUUUUUUUUGAGAGGGCGUCCCUCUCCUG [tttttgagapaired]	1.09
UUUUUUUUUUGAGAACGGGGCGUUCUCCAG [tttttgagapaired]	0.453
GUUGUGUGUGUUGGCGUCUAACACACACAG [gtspaired]	-1.1
UUCUCUCUUCCUCCAGAGGAGGAGGAGGGA [ctspaired]	0.0644
